Article PMC4336329 (PLoS ONE, 2015)
Hit rate of the full screen: of about 310,000 compounds, about 14,000 (4.5%) showed an effect of 50% or more. Effects have a minus sign here. The list shows a part of the results.

These compounds were tested against human ether-à-go-go-related gene (hERG) potassium channel (human, UniProt Q12809) (assay: primary screen, population patch clamp on CHO cells stably expressing hERG).
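Further: peak tail current of the secondary pulse compared with the same well before compound.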

human ether-à-go-go-related gene (hERG) potassium channel, sequence (Q12809 whole entry, looked up): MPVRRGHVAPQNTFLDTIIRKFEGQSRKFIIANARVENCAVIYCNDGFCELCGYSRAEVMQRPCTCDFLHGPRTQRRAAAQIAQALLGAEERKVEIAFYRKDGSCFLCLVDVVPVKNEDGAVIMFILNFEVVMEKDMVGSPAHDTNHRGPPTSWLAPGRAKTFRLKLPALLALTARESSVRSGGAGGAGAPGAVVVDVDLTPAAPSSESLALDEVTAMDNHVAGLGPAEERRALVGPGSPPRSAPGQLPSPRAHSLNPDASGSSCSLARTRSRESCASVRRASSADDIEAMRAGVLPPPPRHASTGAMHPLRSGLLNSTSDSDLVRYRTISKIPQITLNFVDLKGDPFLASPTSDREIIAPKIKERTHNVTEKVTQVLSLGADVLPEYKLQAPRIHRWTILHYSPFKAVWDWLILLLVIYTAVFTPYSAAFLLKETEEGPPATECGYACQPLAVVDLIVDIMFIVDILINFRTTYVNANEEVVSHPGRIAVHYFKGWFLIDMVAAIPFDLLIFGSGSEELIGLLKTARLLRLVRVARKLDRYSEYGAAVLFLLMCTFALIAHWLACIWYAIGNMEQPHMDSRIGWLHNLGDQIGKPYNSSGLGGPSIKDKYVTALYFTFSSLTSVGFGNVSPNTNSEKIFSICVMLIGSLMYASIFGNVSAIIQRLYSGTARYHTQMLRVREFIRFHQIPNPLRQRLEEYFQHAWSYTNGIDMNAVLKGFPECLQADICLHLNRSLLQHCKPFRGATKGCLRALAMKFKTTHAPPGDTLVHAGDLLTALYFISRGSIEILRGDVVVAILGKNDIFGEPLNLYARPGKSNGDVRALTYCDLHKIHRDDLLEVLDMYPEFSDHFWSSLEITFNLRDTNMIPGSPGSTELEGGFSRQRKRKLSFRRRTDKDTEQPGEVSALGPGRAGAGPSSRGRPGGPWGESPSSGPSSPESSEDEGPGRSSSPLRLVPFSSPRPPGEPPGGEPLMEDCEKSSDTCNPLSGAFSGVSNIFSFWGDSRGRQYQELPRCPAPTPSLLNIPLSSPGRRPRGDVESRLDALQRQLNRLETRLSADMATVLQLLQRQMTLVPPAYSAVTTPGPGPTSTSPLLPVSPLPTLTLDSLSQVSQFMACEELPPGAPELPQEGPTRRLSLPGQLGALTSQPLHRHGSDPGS

SMILES | hERG current change (%, negative = inhibition) at 10uM
COc1cccc(CN(C)C(=O)CSc2nc3ccccc3[nH]2)c1OC | 3.59%
COc1ccccc1N(C)C(=O)c1cc(S(=O)(=O)N2CCc3ccccc32)cn1C | -37.7%
CN1/C(=C\C=C(/C#N)C(=O)Nc2ccc(Cl)cc2)C(C)(C)c2ccccc21 | 13%
COc1ccc2[nH]c(=O)c(CN(C(=O)c3cccnc3)c3ccccc3)cc2c1 | 14.8%
CC1Cc2ccccc2N1S(=O)(=O)c1ccc(Cl)nc1 (centres unmarked) | 4.68%
O=C(CSc1nc2ccccc2nc1N1CCOCC1)N1CCN(c2ccccc2)CC1 | -39.2%
CC(C)CC(=O)NC(=S)Nc1nc(-c2ccccc2)cs1 | 30.8%
COc1cc(NC(=O)c2ccc(Cl)cc2Cl)ccc1NC(=O)c1cccs1 | 5.32%
COc1ccccc1-c1cc(C(=O)N2CCN(c3ccccc3)CC2)no1 | 1.4%
Cc1cccc(CS(=O)(=O)c2ncc(Cl)c(C(=O)Nc3c(C)cccc3C)n2)c1 | 13%
CCn1cc(C(=O)N2CCOCC2)c(=O)c2cc(S(=O)(=O)N(C)C3CCCCC3)ccc21 | 0.899%
COc1cc(=O)n(C)c2c(OCC3OC(C)(C)OC3(C)C)cccc12 (centres unmarked) | 1.87%
COc1ccc(CN(C(=O)CN2C(=O)C(C)Oc3ccccc32)C2CCCC2)c(OC)c1 (centres unmarked) | -12.2%
CC(C)Cc1nnc(NC(=O)C23CC4CC(CC(C4)C2)C3)s1 | 5.58%
CN(C)S(=O)(=O)c1cc([N+](=O)[O-])ccc1N1CCCCCC1 | -8.1%
CC(C(=O)Nc1ccc2c(c1)OCO2)N1CCN(C)CC1.O=C(O)C(=O)O (centres unmarked) | 8.69%
CCOC(=O)C(=CNc1ccc(C(F)(F)F)cc1Cl)C(=O)OCC | 9.05%
O=C(Cc1cn2ccsc2n1)Nc1nc2c(s1)CN(Cc1ccccc1)CC2 | -9.59%
O=C(Nc1ccc(Nc2ccccc2)cc1)c1ccccc1F | 7.4%

SMILES | hERG current change (%, negative = inhibition) at 10uM
CCC1CCCCN1C(=O)CCS(=O)(=O)c1ccccc1 (centres unmarked) | 13.7%
OC(COc1ccc(OCC(O)CN2CCN(Cc3ccccc3)CC2)cc1)CN1CCN(Cc2ccccc2)CC1 (centres unmarked) | 5.65%
CN(C)C(=O)c1cccn1-c1ncc(C(F)(F)F)cc1Cl | 9.11%
O=C(O)c1nccnc1C(=O)Nc1ccc(Cl)cn1 | 17.6%
CCCNC(=O)CCCCn1c(=S)[nH]c2c([nH]c3ccc(OC)cc32)c1=O | 15.1%
O=C(O)CCSc1nnc(CNc2ccc(Cl)cc2)n1Cc1ccccc1 | 1.96%
COc1ccc(NC(=S)NCCCCCC(=O)C[N+](=O)[O-])cc1 | 29.1%
COc1ccc([C@@H]2[C@@H]3C(=O)N(C(C)(C)C)C(=O)[C@@H]3[C@]3(Cc4ccccc4)C(=O)N(c4ccc(Br)cc4)C(=O)N23)cc1 | 17.9%
CC(Nc1nc2ncn(Cc3ccccc3)c2c(=O)[nH]1)C(=O)O (centres unmarked) | 16.8%
COC(=O)C(Cc1c[nH]c2ccccc12)N1CCS(=O)(=O)CC1 (centres unmarked) | 28.4%
CSC(=NS(=O)(=O)c1ccc(C)cc1)SC | -0.185%
Cc1ccccc1OCCC(=O)OCC(=O)NC(=O)c1ccccc1 | 26.1%
Cc1cc(-c2ccccc2)n(-c2ccccc2)n1 | -2.89%
O=C(CSc1ccccc1)NCC1(N2CCOCC2)CCCCC1 | -19%
COc1ccc(S(=O)(=O)N=Nc2c(O)[nH]c3ccccc23)cc1 | 25.1%
O=C(CCNC(=O)c1ccc(Br)cc1)OCc1ccccc1Cl | -24.4%
CN(C)N1C(N)=C(C#N)C(c2ccc3c(c2)OCO3)C2=C1CC(C)(C)CC2=O (centres unmarked) | -0.164%
Cc1cc(=O)n2c3ccccc3n(CC(O)CN3CCCC3)c2c1C#N (centres unmarked) | -44.8%
COc1ccc(O)c(/C=N/N=C/c2cccc([N+](=O)[O-])c2)c1 | 12.1%

SMILES | hERG current change (%, negative = inhibition) at 10uM
COC(=O)c1cccc(-n2[nH]nnc2=S)c1 | 3.03%
N#C/C(=C\c1cc(O)c(O)c(O)c1)C(N)=O | 14.5%
CC(=O)NC(CC(=O)Nc1ccc(S(=O)(=O)N2CCCC2)cc1)c1ccccc1 (centres unmarked) | 17.9%
COc1ccc(CNC(=O)C2CCCN(C(=O)Nc3ccccc3OC)C2)cc1 (centres unmarked) | -1.26%
Nn1c(SCc2nc3ccccn3c2Br)nnc1-c1cccnc1 | -1.43%
COC(=O)Cn1c(C)c(C#N)c2ccccc21 | 8.07%
O=C(N/N=C\c1cccs1)c1ccccc1-n1cccc1 | 4.66%
CCOC(=O)C1=C(C)NC(C)=C(C(=O)OCC)C1C(=O)OCC(=O)N1c2ccccc2CC1C (centres unmarked) | -28.9%
O=c1c(O)cccc2cc(O)c(O)c(O)c12 | 9.73%
CN(C)C(=O)c1cn(-c2ccccc2)nc1-c1cccc([N+](=O)[O-])c1 | -35.4%
Cc1ccc(C(=O)NNC(=O)Cc2csc(-c3csc(C)n3)n2)cc1 | 14%
CC(C)(C)NC1=CC(=O)OC12CCCCC2 | -1%
CN1C(=O)c2ccccc2N(C)C1c1ccc2c(c1)OCO2 (centres unmarked) | -7.04%
CN1CCN(C(=O)c2ccccc2NC(=O)COc2ccccc2Cl)CC1 | -20.7%
CC(=O)N1CCN(C(=S)Nc2cc(S(=O)(=O)N3CCOCC3)ccc2Cl)CC1 | 18.4%
Cc1cc(=O)oc2cc(OCCCC[n+]3ccccc3)ccc12.[Br-] | 4.72%
CCCN1C(=O)SC(CC(=O)Nc2ccccc2)C1=O (centres unmarked) | 3.39%
Cc1ccccc1Nc1nc(N)nc(COC(=O)c2cccc(S(=O)(=O)NCc3ccccc3)c2)n1 | -5.83%
